# Assay results published in the supplement of paper PMC8728848.
# The other results are listed elsewhere or left out.
# Key:
# Assay in all cases: glycan array binding signal (z-score within array); higher = stronger binding
# Settings in all cases: glycan notation: IUPAC condensed, linker removed
# Gal(b1-3)GalNAc(b1-3)Gal = target: Gal(b1-3)GalNAc(b1-3)Gal
# Outline: (§1)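 Glycan array data were curated from 3228 arrays in the Consortium for Functional Glycomics database and kept only where the protein sequence was available. Glycan names were converted to IUPAC-condensed notation, and columns mapping to the same glycan were averaged. The binding signal is a within-array Z-score, averaged across arrays of the same protein sequence at different concentrations or buffers and across linkers. Negative Z-scores can be read as non-binding.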
# [1] = target: Gal(b1-3)GalNAc(b1-3)Gal(a1-4)Gal(b1-4)Glc
# Outline: as §1
# [2] = target: Gal(b1-3)GalNAc(b1-4)Gal(b1-4)Glc
# Outline: as §1
# [3] = target: Gal(b1-3)GalNAc(b1-4)[Neu5Ac(a2-3)]Gal(b1-4)Glc
# Outline: as §1
# Gal(b1-3)GlcNAc = target: Gal(b1-3)GlcNAc
# Outline: as §1
# [4] = target: Gal(b1-3)GlcNAc(a1-3)Gal(b1-4)GlcNAc
# Outline: as §1
# [5] = target: Gal(b1-3)GlcNAc(a1-6)Gal(b1-4)GlcNAc
# Outline: as §1
# Gal(b1-3)GlcNAc(b1-2)Man = target: Gal(b1-3)GlcNAc(b1-2)Man
# Outline: as §1
# [6] = target: Gal(b1-3)GlcNAc(b1-2)Man(a1-3)[Gal(b1-3)GlcNAc(b1-2)Man(a1-6)]Man(b1-4)GlcNAc(b1-4)GlcNAc
# Outline: as §1
# [7] = target: Gal(b1-3)GlcNAc(b1-2)Man(a1-3)[Gal(b1-3)GlcNAc(b1-2)Man(a1-6)]Man(b1-4)GlcNAc(b1-4)[Fuc(a1-6)]GlcNAc
# Outline: as §1
# [8] = target: Gal(b1-3)GlcNAc(b1-2)Man(a1-3)[GlcNAc(b1-4)][Gal(b1-3)GlcNAc(b1-2)Man(a1-6)]Man(b1-4)GlcNAc(b1-4)GlcNAc
# Outline: as §1
# [9] = target: Gal(b1-3)GlcNAc(b1-2)[Gal(b1-3)GlcNAc(b1-6)]Man(a1-6)[Gal(b1-3)GlcNAc(b1-2)Man(a1-3)]Man(b1-4)GlcNAc(b1-4)GlcNAc
# Outline: as §1
# [10] = target: Gal(b1-3)GlcNAc(b1-3)Gal(b1-3)GlcNAc
# Outline: as §1
# [11] = target: Gal(b1-3)GlcNAc(b1-3)Gal(b1-4)Glc
# Outline: as §1
# [12] = target: Gal(b1-3)GlcNAc(b1-3)Gal(b1-4)GlcNAc
# Outline: as §1
# [13] = target: Gal(b1-3)GlcNAc(b1-3)Gal(b1-4)GlcNAc(b1-2)Man(a1-3)[Gal(b1-3)GlcNAc(b1-3)Gal(b1-4)GlcNAc(b1-2)Man(a1-6)]Man(b1-4)GlcNAc(b1-4)GlcNAc
# Outline: as §1
# [14] = target: Gal(b1-3)GlcNAc(b1-3)Gal(b1-4)GlcNAc(b1-2)[Gal(b1-3)GlcNAc(b1-3)Gal(b1-4)GlcNAc(b1-6)]Man(a1-6)[Gal(b1-3)GlcNAc(b1-3)Gal(b1-4)GlcNAc(b1-2)Man(a1-3)]Man(b1-4)GlcNAc(b1-4)[Fuc(a1-6)]GlcNAc
# Outline: as §1
# [15] = target: Gal(b1-3)GlcNAc(b1-3)Gal(b1-4)GlcNAc(b1-3)Gal(b1-4)GlcNAc(b1-2)[Gal(b1-3)GlcNAc(b1-3)Gal(b1-4)GlcNAc(b1-3)Gal(b1-4)GlcNAc(b1-6)]Man(a1-6)[Gal(b1-3)GlcNAc(b1-3)Gal(b1-4)GlcNAc(b1-3)Gal(b1-4)GlcNAc(b1-2)Man(a1-3)]Man(b1-4)GlcNAc(b1-4)[Fuc(a1-6)]GlcNAc
# Outline: as §1
# [16] = target: Gal(b1-3)GlcNAc(b1-3)Gal(b1-4)GlcNAc(b1-6)[Gal(b1-3)GlcNAc(b1-3)]Gal(b1-4)Glc
# Outline: as §1
# [17] = target: Gal(b1-3)GlcNAc(b1-3)Gal(b1-4)[Fuc(a1-3)]GlcNAc
# Outline: as §1
# [18] = target: Gal(b1-3)GlcNAc(b1-3)Gal(b1-4)[Fuc(a1-3)]GlcNAc(b1-6)[Gal(b1-3)GlcNAc(b1-3)]Gal(b1-4)Glc
# Outline: as §1
# [19] = target: Gal(b1-3)GlcNAc(b1-3)GalNAc
# Outline: as §1
# [20] = target: Gal(b1-3)GlcNAc(b1-6)Gal(b1-4)GlcNAc
# Outline: as §1
# [21] = target: Gal(b1-3)GlcNAc(b1-6)GalNAc
# Outline: as §1
# [22] = target: Gal(b1-3)GlcNAc(b1-6)[Gal(b1-3)]GalNAc
# Outline: as §1
# Gal(b1-3)GlcNAc6S = target: Gal(b1-3)GlcNAc6S
# Outline: as §1
# [23] = target: Gal(b1-3)[Fuc(a1-4)]GlcNAc
# Outline: as §1
# [24] = target: Gal(b1-3)[Fuc(a1-4)]GlcNAc(b1-2)Man
# Outline: as §1
# [25] = target: Gal(b1-3)[Fuc(a1-4)]GlcNAc(b1-2)Man(a1-3)[Gal(b1-3)[Fuc(a1-4)]GlcNAc(b1-2)Man(a1-6)]Man(b1-4)GlcNAc(b1-4)[Fuc(a1-6)]GlcNAc
# Outline: as §1
# [26] = target: Gal(b1-3)[Fuc(a1-4)]GlcNAc(b1-3)Gal(b1-3)[Fuc(a1-4)]GlcNAc
# Outline: as §1
# [27] = target: Gal(b1-3)[Fuc(a1-4)]GlcNAc(b1-3)Gal(b1-4)[Fuc(a1-3)]GlcNAc
# Outline: as §1
# [28] = target: Gal(b1-3)[Fuc(a1-4)]GlcNAc(b1-6)GalNAc
# Outline: as §1
# [29] = target: Gal(b1-3)[GlcNAc(b1-6)]GalNAc
# Outline: as §1
# [30] = target: Gal(b1-3)[Neu5Ac(a2-6)]GalNAc
# Outline: as §1
# [31] = target: Gal(b1-3)[Neu5Ac(a2-6)]GlcNAc(b1-4)Gal(b1-4)Glc
# Outline: as §1
# [32] = target: Gal(b1-3)[Neu5Ac(b2-6)]GalNAc
# Outline: as §1
# Gal(b1-4)Gal = target: Gal(b1-4)Gal
# Outline: as §1
# [33] = target: Gal(b1-4)GalNAc(a1-3)[Fuc(a1-2)]Gal(b1-4)GlcNAc
# Outline: as §1
binder,measurement,setting,value
Epa23 (Candida glabrata) (protein) MGSSHHHHHHSSGLVPRGSHMIPNPFEGTINNFPSGCSPNHGLYNRGLTMELYNYSYIHPQSIQSYFNTSTLKKMEKGQCWDPSYLDVNYPRTGYKTHNRFAKVNGIDGILDFEFNPTRSCVPSKGQLPQNYNYPLQFTLSNFTMLLYGYFKPKVTAKHTFTIFADDLLFLNFGAGNAFDCCQQQDTIDDFGNYQAYALWGSDTQQNTLTVNLDANIYYPIRMFYNNRDFKGALNMYFTTDESNTKINDFSGYLFNIPDSSEGCPAHISYETECGNVSG,glycan array binding signal (z-score),Gal(b1-3)GalNAc(b1-3)Gal,0.855
same,glycan array binding signal (z-score),[1],0.009
same,glycan array binding signal (z-score),[2],1.08
same,glycan array binding signal (z-score),[3],0.204
same,glycan array binding signal (z-score),Gal(b1-3)GlcNAc,-0.179
same,glycan array binding signal (z-score),[4],-0.167
same,glycan array binding signal (z-score),[5],-0.078
same,glycan array binding signal (z-score),Gal(b1-3)GlcNAc(b1-2)Man,-0.057
same,glycan array binding signal (z-score),[6],-0.062
same,glycan array binding signal (z-score),[7],-0.286
same,glycan array binding signal (z-score),[8],-0.162
same,glycan array binding signal (z-score),[9],-0.104
same,glycan array binding signal (z-score),[10],-0.183
same,glycan array binding signal (z-score),[11],-0.292
same,glycan array binding signal (z-score),[12],-0.194
same,glycan array binding signal (z-score),[13],-0.194
same,glycan array binding signal (z-score),[14],-0.076
same,glycan array binding signal (z-score),[15],-0.035
same,glycan array binding signal (z-score),[16],-0.065
same,glycan array binding signal (z-score),[17],-0.155
same,glycan array binding signal (z-score),[18],-0.13
same,glycan array binding signal (z-score),[19],-0.16
same,glycan array binding signal (z-score),[20],0.671
same,glycan array binding signal (z-score),[21],-0.152
same,glycan array binding signal (z-score),[22],-0.069
same,glycan array binding signal (z-score),Gal(b1-3)GlcNAc6S,-0.074
same,glycan array binding signal (z-score),[23],-0.273
same,glycan array binding signal (z-score),[24],-0.153
same,glycan array binding signal (z-score),[25],-0.198
same,glycan array binding signal (z-score),[26],-0.248
same,glycan array binding signal (z-score),[27],-0.208
same,glycan array binding signal (z-score),[28],-0.177
same,glycan array binding signal (z-score),[29],-0.04
same,glycan array binding signal (z-score),[30],0.224
same,glycan array binding signal (z-score),[31],-0.171
same,glycan array binding signal (z-score),[32],-0.124
same,glycan array binding signal (z-score),Gal(b1-4)Gal,-0.087
same,glycan array binding signal (z-score),[33],-0.292
